Experimental data: PubChem BioAssay AID504333 (National Center for Advancing Translational Sciences (NCATS), 2011)
The whole screen tested about 360,000 compounds, of which about 16,000 (4.4%) were called active. The shares of active, inactive and inconclusive entries below differ from those in the screen. Calls come from the whole dose curve; as a rule, active = well fitted inhibition curve with a large enough effect; inconclusive = small, poorly fitted or top-dose-only effect; inactive = no such curve, though single readings can be large or run the other way. A potency beside an inconclusive call is a rough fit, not a confirmed value.

target: Bromodomain adjacent to zinc finger domain protein 2B (Homo sapiens) (UniProt Q9UIF8); assay: qHTS Assay for Inhibitors of BAZ2B; conditions: AlphaScreen BAZ2B-H3K14Ac peptide displacement; series mostly up to 114 µM; note: nearly all actives have a fitted effect of over 60% in size
Summary of the method: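 AlphaScreen displacement of biotin-H3(5-23)K14Ac peptide (50 nM final) from BAZ2B (50 nM final) in PBS pH 7.4, 0.01% Tween-20; complex preformed 30 min RT, then compounds (top 110 uM) 30 min RT, beads 20 min dark.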
Potency is the fitted concentration of half-maximal effect; tags give direction and shape of the fitted curve.

Sequence of UniProt Q9UIF8 (Q9UIF8 whole entry, looked up, the tested form may be a part): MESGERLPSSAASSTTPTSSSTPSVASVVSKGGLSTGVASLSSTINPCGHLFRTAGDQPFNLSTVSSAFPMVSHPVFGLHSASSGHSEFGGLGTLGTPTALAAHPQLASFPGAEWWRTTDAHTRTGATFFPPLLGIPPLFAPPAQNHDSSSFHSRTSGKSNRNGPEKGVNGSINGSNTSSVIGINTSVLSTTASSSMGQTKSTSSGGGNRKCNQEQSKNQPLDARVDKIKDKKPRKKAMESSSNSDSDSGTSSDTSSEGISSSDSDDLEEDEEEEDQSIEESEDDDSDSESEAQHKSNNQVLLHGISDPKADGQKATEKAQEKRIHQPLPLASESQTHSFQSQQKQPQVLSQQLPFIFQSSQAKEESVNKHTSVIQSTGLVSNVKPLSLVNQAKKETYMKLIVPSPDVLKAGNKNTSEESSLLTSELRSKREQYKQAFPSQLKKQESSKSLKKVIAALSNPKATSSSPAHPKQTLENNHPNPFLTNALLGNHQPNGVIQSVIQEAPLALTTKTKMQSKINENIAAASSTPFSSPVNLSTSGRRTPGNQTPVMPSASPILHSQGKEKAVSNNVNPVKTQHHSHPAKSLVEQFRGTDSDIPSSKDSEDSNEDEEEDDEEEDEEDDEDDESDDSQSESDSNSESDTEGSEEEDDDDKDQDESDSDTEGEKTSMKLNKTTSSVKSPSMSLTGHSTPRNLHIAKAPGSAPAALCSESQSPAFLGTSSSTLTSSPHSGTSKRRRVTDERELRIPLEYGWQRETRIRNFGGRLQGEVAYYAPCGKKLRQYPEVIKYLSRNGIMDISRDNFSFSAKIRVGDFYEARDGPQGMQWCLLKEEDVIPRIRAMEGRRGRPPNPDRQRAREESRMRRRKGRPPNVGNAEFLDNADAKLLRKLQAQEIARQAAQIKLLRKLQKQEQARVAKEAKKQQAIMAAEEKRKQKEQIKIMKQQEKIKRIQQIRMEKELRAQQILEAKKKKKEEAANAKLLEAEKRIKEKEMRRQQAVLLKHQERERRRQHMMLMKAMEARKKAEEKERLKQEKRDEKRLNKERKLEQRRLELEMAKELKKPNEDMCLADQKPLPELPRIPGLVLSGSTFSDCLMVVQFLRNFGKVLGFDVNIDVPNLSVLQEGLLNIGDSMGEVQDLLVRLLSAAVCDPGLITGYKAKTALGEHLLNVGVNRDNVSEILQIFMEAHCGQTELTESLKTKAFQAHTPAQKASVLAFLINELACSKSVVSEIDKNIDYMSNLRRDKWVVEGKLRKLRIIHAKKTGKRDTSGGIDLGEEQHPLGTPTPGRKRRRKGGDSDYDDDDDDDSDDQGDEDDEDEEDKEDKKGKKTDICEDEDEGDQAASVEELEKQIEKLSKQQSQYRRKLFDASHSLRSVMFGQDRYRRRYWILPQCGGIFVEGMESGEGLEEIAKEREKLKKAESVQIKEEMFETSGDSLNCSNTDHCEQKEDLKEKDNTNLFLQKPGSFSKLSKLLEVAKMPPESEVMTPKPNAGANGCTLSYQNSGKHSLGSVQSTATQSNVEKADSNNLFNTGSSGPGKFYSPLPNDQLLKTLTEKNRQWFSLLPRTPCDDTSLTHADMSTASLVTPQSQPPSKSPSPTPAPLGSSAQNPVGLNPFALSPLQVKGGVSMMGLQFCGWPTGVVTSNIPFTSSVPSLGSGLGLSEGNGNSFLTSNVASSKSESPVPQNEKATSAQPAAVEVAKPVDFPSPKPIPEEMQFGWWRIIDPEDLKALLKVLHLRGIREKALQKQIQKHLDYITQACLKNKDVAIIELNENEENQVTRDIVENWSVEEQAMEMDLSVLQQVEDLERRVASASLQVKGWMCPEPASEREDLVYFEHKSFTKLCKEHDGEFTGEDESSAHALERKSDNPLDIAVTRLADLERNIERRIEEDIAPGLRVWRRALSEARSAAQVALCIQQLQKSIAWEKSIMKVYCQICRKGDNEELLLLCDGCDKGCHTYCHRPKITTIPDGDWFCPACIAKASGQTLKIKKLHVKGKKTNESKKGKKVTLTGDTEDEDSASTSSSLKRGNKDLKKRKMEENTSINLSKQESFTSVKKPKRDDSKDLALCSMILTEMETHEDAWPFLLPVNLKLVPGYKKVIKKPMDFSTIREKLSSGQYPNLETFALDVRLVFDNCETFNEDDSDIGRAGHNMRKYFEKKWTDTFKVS

| Compound | Potency |
| --- | --- |
| C/C(=N\NC(=S)Nc1cccc(C)c1)c1cccc(N)c1 | inconclusive: 50.1 µM [inhibitor, partial curve] |
| Cc1nc2ccn(Cc3cccs3)c(=O)c2cc1C(=O)NCc1ccc(Br)cc1 | inactive |
| COc1ccc(OC)c(NC(=O)CSC2=Nc3ccccc3C3=NC(CCC(=O)NCc4ccccc4)C(=O)N23)c1 (stereo not given) | inconclusive: 79.4 µM [inhibitor, partial curve] |
| c1ccc(-n2ncc3c(NCc4ccco4)ncnc32)cc1 | inconclusive: 89.1 µM [inhibitor, single point] |
| C=CCNC(=O)c1onc(CSc2ccc(C(C)C)cc2)c1C(=O)O | inconclusive: 89.1 µM [inhibitor, single point] |
| CCC1C(=O)CC(c2ccc([N+](=O)[O-])cc2)NC1c1ccc([N+](=O)[O-])cc1 (stereo not given) | inconclusive: 17.8 µM [inhibitor, full curve] |
| Cc1ccccc1NC(=O)CSc1n[nH]c(-c2ccccn2)n1 | active: 2.82 µM |
| COc1ccc(NC(=O)c2ccc3c(c2)n(C)c(=O)n3C)cc1 | inconclusive: 89.1 µM [inhibitor, single point] |
| CCOc1cccc2sc(N(CCN(CC)CC)C(=O)c3ccc(S(=O)(=O)N4CCCCC4)cc3)nc12 | inconclusive: 79.4 µM [inhibitor, single point] |
| CC(=O)OCCCN1C(=O)c2cccc3cc(Br)cc(c23)C1=O | inconclusive: 35.5 µM [inhibitor, partial curve] |
| CCOC(=O)CN(C(=O)CSc1nnc2c(n1)[nH]c1ccc(F)cc12)c1ccccc1 | inconclusive: 89.1 µM [inhibitor, single point] |
| Cc1ccc(-c2nc3cnccn3c2Nc2ccc3c(c2)OCCO3)o1 | inconclusive: 89.1 µM [inhibitor, single point] |
| CCOC(=O)c1sc2nc3c(SCCC(=O)O)cc(C(=O)c4cc(OC)ccc4O)cn3c(=O)c2c1C | active: 35.5 µM |
| CCn1c(SCC(=O)Nc2nccs2)nnc1C1CC1 | inactive |
| Cc1ccn2c(c1)nc(=O)c1cc(S(=O)(=O)N3CCCCC3)c(Cl)cc12 | inactive |
| COc1ccc(CC(=O)NNS(=O)(=O)c2ccccc2[N+](=O)[O-])cc1 | inactive |
| O=NC1=C(c2c(O)[nH]c3ccccc23)CCCC1 | inactive |
| O=[N+]([O-])c1ccc(Cl)c(-c2ccc(/C=N/c3c(-c4ccco4)nc4ccccn34)o2)c1 | inconclusive: 56.2 µM [inhibitor, partial curve, poor fit] |
| CCOC(=O)Cc1csc(NC(=O)c2sc3nc4ccc(CC)cc4cc3c2N)n1 | inactive |
| O=C(Nc1ccc(C(=O)O)cc1)/C(=C\c1ccco1)NC(=O)c1ccccc1Cl | inconclusive: 89.1 µM [inhibitor, single point] |
| CS(=O)(=O)N1CCC(C(=O)O)CC1 | active: 5.62 µM |
| Clc1ccccc1-c1ccc(CN2CCN(c3ccccc3)CC2)o1 | inconclusive: 89.1 µM [inhibitor, single point] |
| COCCCNC(=O)CCn1nc(-c2ccc(Cl)cc2)ccc1=O | inactive |
| CN(Cc1nc2ccccc2c(=O)[nH]1)C(=O)c1ccc(S(=O)(=O)N(C)C)cc1 | inconclusive: 89.1 µM [inhibitor, single point] |

| Compound | Potency |
| --- | --- |
| CCCCn1c(O)c(N=Nc2ccccc2O)c2ccccc21 | inconclusive: 35.5 µM [inhibitor, full curve] |
| O=C(CSc1nnnn1C1CC1)Nc1cccc(S(=O)(=O)N2CCCC2)c1 | inconclusive: 39.8 µM [inhibitor, single point] |
| CCOc1ccc(CCNc2ncnc3onc(-c4ccc(Cl)cc4)c23)cc1 | inactive |
| CCCCOC(=O)Nc1ccc(N2CCCCC2)cc1 | inconclusive: 70.8 µM [inhibitor, single point] |
| CCCCNC(=O)C1CCN(Cc2ccc(OCc3ccccc3)cc2)CC1 | inconclusive: 89.1 µM [inhibitor, single point] |
| COC(=O)c1c(C)[nH]c(C(=O)OCC(=O)N2c3ccccc3NC(=O)C2(C)C)c1C | inactive |
| Cc1ccc(S(=O)(=O)c2c(N)n(CCCO)c3nc4ccccc4nc23)cc1 | active: 56.2 µM |
| OCCN1CCN(c2ncnc3c2c(-c2ccccc2)cn3-c2ccc(Br)cc2)CC1 | active: 44.7 µM |
| COC(CNC(=O)C1CCN(S(=O)(=O)c2ccc3nc4c(c(C(=O)O)c3c2)CC(C)CC4)CC1)OC (stereo not given) | inconclusive: 89.1 µM [inhibitor, single point] |
| Cc1ccc(S(=O)(=O)N(C)c2ccc(C(=O)N3CCc4ccccc4C3)cc2)cc1 | inconclusive: 79.4 µM [inhibitor, single point] |
| COc1ccc(CCNc2cc(N3CCN(C(=O)c4ccccc4F)CC3)ccc2[N+](=O)[O-])cc1OC | inconclusive: 100 µM [inhibitor, single point] |
| CC(NC(=O)COc1ccc(-c2nnco2)cc1)c1ccc(Cl)cc1Cl (stereo not given) | inactive |
| CCOC(=O)CSC1=C(C#N)C(c2ccc(C)s2)CC(=O)N1 (stereo not given) | inactive |
| CCn1nnc2cc(C(=O)Nc3ccc(C)cc3Br)ccc21 | inactive |
| C/C(=N\NC(=S)Nc1ccc(C(C)C)cc1)c1ccc2c(c1)OCO2 | inconclusive: 89.1 µM [inhibitor, partial curve] |
| CCN1CCN(c2ccc(S(=O)(=O)N3CCCCC3)cc2NC(=O)Cc2ccc(Cl)c(Cl)c2)CC1 | inconclusive: 79.4 µM [inhibitor, single point] |
| CCc1ccc(/C=C2\SC(=S)N(CCCC(=O)Nc3ccccc3C(=O)O)C2=O)cc1 | inconclusive: 31.6 µM [inhibitor, partial curve] |
| COc1ccccc1-c1nnc(C2CCN(S(=O)(=O)c3ccccc3[N+](=O)[O-])CC2)o1 | inactive |
| O=C(O)c1ccccc1C(=O)c1ccc(N2CCOCC2)c([N+](=O)[O-])c1 | inconclusive: 89.1 µM [inhibitor, single point] |
| COc1ccccc1N1CCN(C(=O)NC23CC4CC(CC(C4)C2)C3)CC1 | inactive |
| COc1ccc(/C=c2\sc3nc(-c4ccccc4)c(-c4ccccc4)n3c2=O)cc1OC | inconclusive: 7.08 µM [inhibitor, full curve] |
| O=C(NCc1ccc2[nH]c3c(c2c1)CCCC3)c1ccc(S(=O)(=O)N2CCCC2)cc1 | inactive |
| C[C@@H](C(=O)NC1CCN(Cc2ccccc2)CC1)N1C(=O)N2CCc3c([nH]c4ccccc34)[C@@]2(C)C1=O | inconclusive: 70.8 µM [inhibitor, single point] |
| Cc1ccc(C)c(OCCC(=O)OCC(=O)N2CCN(S(=O)(=O)c3ccc(Cl)cc3)CC2)c1 | inactive |

| Compound | Potency |
| --- | --- |
| O=C(O)c1c[nH]c2ccc(S(=O)(=O)N3CCN(c4ccc(F)cc4)CC3)cc2c1=O | inconclusive: 89.1 µM [inhibitor, single point] |
| COCc1ccc(CN2CCC(C(=O)Nc3cccc(-c4cccc(Cl)c4)c3)CC2)o1 | inconclusive: 50.1 µM [inhibitor, partial curve, poor fit] |
| COc1cccc(CNC(=O)CCNS(=O)(=O)c2ccc3c(c2)CC(C)N3C(C)=O)c1 (stereo not given) | inactive |
| CC(C)CC(=O)Nc1ccc(C(=O)COc2ccc(-c3nnco3)cc2)cc1 | inactive |
| OCCNCCNCc1ccccc1OCc1ccccc1 | inconclusive: 79.4 µM [inhibitor, single point] |
| O=C(N/N=C/c1cc(Cl)cc([N+](=O)[O-])c1O)c1cc(-c2ccccn2)nc2ccccc12 | inconclusive: 70.8 µM [inhibitor, partial curve, poor fit] |
| COc1ccc(CCNC(=S)NCCc2c[nH]c3ccccc23)cc1 | active: 35.5 µM |
| CCc1ccc(CNCc2ccc(OCC(O)CN(C)Cc3ccccc3)cc2)nc1 (stereo not given) | inconclusive: 4.47 µM [inhibitor, full curve] |
| CCOc1ccc(Cl)cc1/C=N/NC(=O)CNC(=O)c1ccccc1 | inactive |
| Cc1ccc(OCCNCC(O)COc2ccccc2)cc1 (stereo not given) | active: 50.1 µM |
| CCSC1=NSC2=NC(=O)/C(=C\c3coc4ccccc4c3=O)C(=N)N12 | inconclusive: 89.1 µM [inhibitor, single point] |
| COc1cccc(C(=O)Oc2ccccc2/C=C\C(=O)c2cc3ccccc3o2)c1 | inconclusive: 79.4 µM [inhibitor, single point] |
| COc1ccc(/C=C/C(=O)NCC(=O)N2CCC(N(C)CCN3CCOCC3)CC2)cc1OC | active: 50.1 µM |
| O=C(CCN1C(=O)/C(=C/c2cccs2)SC1=S)Nc1cccc(C(=O)O)c1 | active: 50.1 µM |
| C=C(C)C(=O)Nc1cccc(C2=NOC3(C2)C[C@H](C(N)=O)N(C(=O)CC)C3)c1 (stereo not given in full) | active: 3.55 µM |
| Cc1ccccc1C(C(=O)NC1CCCC1)N(C(=O)CNC(=O)c1ccco1)c1cccnc1 (stereo not given) | inactive |
| S=c1[nH]nc(COc2ccccc2)n1/N=C/c1ccc(Cl)cc1Cl | inactive |
| CCCc1cc(=O)n2[nH]c(C)c(-c3ccccc3)c2n1 | inactive |
| COCCCN1C(=O)C(O)=C(C(=O)c2ccc(C)o2)C1c1cccc(Br)c1 (stereo not given) | inactive |
| Cc1ccc(OCCn2cc(C(=O)c3ccco3)c3ccccc32)cc1C | inconclusive: 79.4 µM [inhibitor, partial curve] |
| COC(=O)C1=C(C(=O)OC)SC(=C2C(=S)C(C)(C)N(C(=O)CC(C)C)c3ccccc32)S1 | active: 3.98 µM |
| C/C(N)=C(/C#N)C(=O)CSc1nc(-c2ccccc2)c(-c2ccccc2)o1 | inconclusive: 35.5 µM [inhibitor, partial curve] |
